Structures are written as SMILES. Out of some 48,000 compounds screened, about 120 (0.25%) were called active. Roughly 4% stayed inconclusive and do not appear here. Calls come from the whole dose curve; as a rule, active = well fitted activation curve with a large enough effect; inconclusive = small, poorly fitted or top-dose-only effect, or another doubt; inactive = no such curve, though single readings can be large or run the other way. The list shows a part of the results, in another mix than the full data. Entries without a call were filed so in the source.

The nature of this test: Primary qHTS for Identification of Small Molecule Activators of Huntingtin-Antisense Promoter Activity. Note: nearly all actives have a fitted effect of over 55% in size. The conditions noted are these: HEK293 HTT-AS promoter firefly luciferase reporter, 24 h; activity change, positive = activation: at 57.5 µM (top of the series), percent change from vehicle, -100% = no light. In a few lines: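 Quantitative HTS used concentration series of up to 57.5 uM final on HEK293 luciferase reporter cells, 24 h at 37 degrees C. Readout was Dual-Glo firefly luminescence.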
Turning to `CC(C)c1ccc(S(=O)(=O)N2CCC(n3c(C(F)(F)F)nc4cccnc43)CC2)cc1`, the activity change, positive = activation was -8.56%.

Regarding `CC(NC(=O)C1CCN(S(=O)(=O)Cc2ccccc2)CC1)c1ccccc1` (stereo not drawn), the activity change, positive = activation is -5.05%. The same measure for `COc1cc2c(-c3cccc(Cl)c3)nc3c(c(C)nn3-c3ccccc3)c2cc1OC`: -4.41%; for `COc1ccc(C2c3cc(OC)c(OC)cc3CC(=O)N2c2ccc(C)cc2)cc1` (stereo not drawn): -22.6%; for `COc1ccccc1Nc1nc(-c2ccccc2F)nc2ccccc12`: inactive: -30.7%. As to `Cc1ccccc1CNC(=O)c1cnc2sc(N3CCC(C)CC3)nn2c1=O`, the activity change, positive = activation is 10.7%. On to `CC(C)(C)c1ccc(-c2nc(SCCOc3ccc(Cl)cc3)n3[nH]c(=O)cc3n2)cc1`, for which the activity change, positive = activation came to 0.494%. The same measure for `Clc1ccccc1N1CCN(Cc2nnc(-c3ccccc3)o2)CC1`: -15.8%.

On to `Cc1ccc(Cl)cc1-n1c(CCC(=O)O)ccc1-c1cccs1`, for which the activity change, positive = activation is -1.13%.

`CCc1nn(CC(=O)NCc2ccc(OC)cc2OC)c(=O)c2cc3c(OC)cccc3n12`: the activity change, positive = activation is -8.95%.

As for `CCOC(=O)c1ccc(NC(=O)CCc2c(C)n(CC)c3cc(-c4ccccc4OC)nn3c2=O)cc1`, the “activity change, positive = activation” value is inactive: -6.24%. The value for `Oc1cccc(-c2c3nc(c(-c4cccc(O)c4)c4ccc([nH]4)c(-c4cccc(O)c4)c4nc(c(-c5cccc(O)c5)c5ccc2[nH]5)CC4)C=C3)c1` was inactive: -26.9%; that for `O=c1cc(-c2cccc3c2Sc2ccccc2S3)oc(N2CCOCC2)c1` was inactive: -24.3%; that for `CCOc1cccc(C(=O)Nc2ccc(-c3nc4cc(C)cc(C)c4o3)cc2)c1` was -4.11%. The same measure for `Cc1cccc(OCCOCCn2c(-c3ccc(Cl)cc3)nc3ccccc3c2=O)c1C`: 37.5%. The value for `Cc1ccc(C(=O)NCc2ccc3c(c2)CCN3C(=O)c2ccc(C)cc2)cc1` was inactive: -29%; that for `Cc1cc(=O)n2c(C(=O)Nc3ccc(Br)cc3)c(C(=O)Nc3ccccc3)sc2n1` was -9.91%; that for `Cc1ccc(-n2ncc3c(NC4CCCC4)ncnc32)cc1` was inactive: -51.6%.

In the case of `COc1ccc(C)cc1NC(=O)c1c(C(=O)Nc2cccc(C)c2C)sc2nc(C)cc(=O)n12`, the activity change, positive = activation was -3.77%. In the case of `COc1cc2oc(=O)c(CC(=O)N3CCCCC3)c(C)c2cc1Cl`, the activity change, positive = activation was 10.2%. The same measure for `O=C(c1cccc(Br)c1)N1CCN(Cc2cc(=O)n3nc(-c4ccccc4)sc3n2)CC1`: 9.42%; for `Cc1cc(S(=O)(=O)Nc2ccc(-c3ccc(N4CCCCC4)nn3)cc2)c(C)cc1Cl`: -5.66%; for `COc1ccc(C2C(=O)N(C3CCC(C)CC3)CC(=O)N2Cc2ccccc2Cl)cc1OC` (stereo not drawn): -14.5%. The value for `CC1CCN(c2nn3c(=O)c(C(=O)NCc4ccc(Cl)cc4)cnc3s2)CC1` was -3.32%; that for `COc1ccc(CNC(=O)CCc2c(C)nn(-c3ccc(N4CCCCC4)nn3)c2C)c(OC)c1` was 11.5%; that for `Cc1ccc(-n2ncc(C(=O)NCCCN3CCN(c4cccc(Cl)c4)CC3)c2-n2cccc2)cc1` was -13.2%. On to `CCCCCCC[N+](CC)(CC)CCCCc1ccc(Cl)cc1`, for which the “activity change, positive = activation” value was inactive: -42.4%.

Turning to `COc1cc(C2C(=O)N(C3CCCCCC3)CC(=O)N2CCC2=CCCCC2)ccc1OC(C)C` (stereo not drawn), the activity change, positive = activation was 3.16%.

As to `Cc1c(CCC(=O)NCCc2ccccc2)c(=O)oc2cc(O)ccc12`, the activity change, positive = activation is -21%. The value for `COc1ccc(N2CCN(S(=O)(=O)c3ccc4oc(=O)c5ncn(C)c5c4c3)CC2)cc1` was 5.71%; that for `Cc1nn(Cc2ccc(F)cc2)c(C)c1NC(=O)c1cc(CC(C)C)on1` was -40.5%.

As to `COCCOC(=O)c1c(C)n(S(=O)(=O)c2ccc(C)cc2)c2ccc(NS(=O)(=O)c3ccc(C)cc3)cc12`, the activity change, positive = activation is -18.1%. The value for `CCOc1ccc(CC(=O)NCCc2csc(-c3ccc(C)cc3)n2)cc1` was inactive: -29.7%; that for `O=S(=O)(Nc1cccc(-c2ccc(N3CCCC3)nn2)c1)c1ccccc1C(F)(F)F` was -1.4%.

For the molecule `COc1cccc(NC(=O)CCN2CCN(CCO)CC2)c1`, the activity change, positive = activation is -2.9%. The value for `Cc1cc(-c2ccc(S(=O)(=O)Nc3cccc(Cl)c3C)cc2)on1` was -34.9%; that for `CC(=O)c1cc(-c2ccccc2)n(CC(=O)NCc2ccccc2C)c1C` was -11.7%; that for `Cc1oc2c(cc(NS(=O)(=O)c3ccc(F)cc3)c3ccccc32)c1C(=O)OCc1ccccc1` was 3.55%. The value for `Cc1ccc(OCc2nnc(-c3ccccc3)o2)cc1` was 44.5%. `CC(=O)Nc1ccc(Nc2nc3ccc(C)cc3n3nnnc23)cc1`: the activity change, positive = activation turned out to be 15.1%.

In the case of `Cc1ccc(C)c(OCCCn2c(-c3ccc(Cl)cc3)nc3ccccc3c2=O)c1`, the activity change, positive = activation stood at 0.84%. The same measure for `CCC1CCc2c(sc(NC(=O)C3c4ccccc4Oc4ccccc43)c2C#N)C1` (stereo not drawn): -22.8%.

For `CCC(C)NC(=O)c1ccccc1NC(=O)C1CCN(S(=O)(=O)Cc2ccccc2)CC1` (stereo not drawn), the activity change, positive = activation is -4.3%. For `CC(=O)Nc1ccc(NC(=O)Nc2sc3nc4n(c(=O)c3c2C)CCC(C)CC4)cc1` (stereo not drawn), the activity change, positive = activation was -9.98%. The value for `COc1ccc(OC)c(NC(=O)c2ccc(-c3nc(COc4ccccc4)c(C)o3)cc2)c1` was -15.9%; that for `Cc1ccc(C(C)C)c(OCCSc2nc(-c3cccs3)nc3cc(=O)[nH]n23)c1` was -1.58%. For `COc1ccc(N2CCN(C(=O)c3cc4c(=O)n(Cc5cccs5)ccc4nc3C)CC2)cc1`, the activity change, positive = activation was -15.6%. The same measure for `CCOc1ccc(CNCc2c(C(=O)O)c(C)n(Cc3c(F)cccc3Cl)c2C)cc1OC`: inactive: -15.8%.
